From publication PMC4336329 (PLoS ONE, 2015) come the findings set out here.

Molecules are shown by their SMILES. Among all 310,000 compounds or so, about 2,200 (0.71%) showed an effect of 50% or more. The effect is printed as a negative number. Some of the results follow.

Chain of human ether-à-go-go-related gene (hERG) potassium channel (Q12809 whole entry, looked up): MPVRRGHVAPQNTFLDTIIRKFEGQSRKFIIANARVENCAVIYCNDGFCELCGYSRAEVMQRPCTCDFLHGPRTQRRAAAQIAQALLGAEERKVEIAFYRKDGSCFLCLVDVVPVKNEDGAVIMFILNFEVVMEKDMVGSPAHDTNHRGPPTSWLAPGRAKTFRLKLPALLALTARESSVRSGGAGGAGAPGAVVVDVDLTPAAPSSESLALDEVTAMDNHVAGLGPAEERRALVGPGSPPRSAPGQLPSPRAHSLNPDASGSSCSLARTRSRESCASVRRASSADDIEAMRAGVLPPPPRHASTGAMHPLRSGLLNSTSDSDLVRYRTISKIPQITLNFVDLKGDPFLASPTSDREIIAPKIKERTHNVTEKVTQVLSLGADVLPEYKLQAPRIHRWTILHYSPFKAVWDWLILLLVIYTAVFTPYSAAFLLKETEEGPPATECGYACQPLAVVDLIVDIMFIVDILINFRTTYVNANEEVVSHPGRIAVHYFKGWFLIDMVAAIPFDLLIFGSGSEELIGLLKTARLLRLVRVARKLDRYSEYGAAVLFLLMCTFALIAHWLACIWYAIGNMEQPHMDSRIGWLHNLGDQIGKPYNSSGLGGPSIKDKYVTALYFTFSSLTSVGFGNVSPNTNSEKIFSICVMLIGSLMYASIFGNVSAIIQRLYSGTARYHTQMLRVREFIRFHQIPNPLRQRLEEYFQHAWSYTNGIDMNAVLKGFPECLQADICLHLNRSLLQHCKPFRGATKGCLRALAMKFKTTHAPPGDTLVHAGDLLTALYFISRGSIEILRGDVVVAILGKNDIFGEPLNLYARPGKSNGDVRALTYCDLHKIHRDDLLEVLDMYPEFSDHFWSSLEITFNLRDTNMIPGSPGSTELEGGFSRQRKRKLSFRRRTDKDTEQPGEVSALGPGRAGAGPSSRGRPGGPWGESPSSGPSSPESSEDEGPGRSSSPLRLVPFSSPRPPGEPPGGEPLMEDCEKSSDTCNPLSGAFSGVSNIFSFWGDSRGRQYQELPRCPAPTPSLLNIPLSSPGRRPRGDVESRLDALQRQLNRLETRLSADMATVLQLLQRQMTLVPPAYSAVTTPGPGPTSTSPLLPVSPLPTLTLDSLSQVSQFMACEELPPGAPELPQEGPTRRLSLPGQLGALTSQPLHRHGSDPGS

This test addresses human ether-à-go-go-related gene (hERG) potassium channel (human, UniProt Q12809). Nature of the test: primary screen, population patch clamp on CHO cells stably expressing hERG.
For the compound `COc1cccc(/C=C/C(=O)Nc2cccc(C(C)=O)c2)c1OC`, the “hERG current change (%, negative = inhibition) at 1uM” value is on record as 12.6%.
`CCN(CC)S(=O)(=O)c1ccc(OC)c(NS(=O)(=O)c2cccc(C(=O)O)c2)c1`: the “hERG current change (%, negative = inhibition) at 1uM” value was found to be 10.5%.
For the compound `COc1ccc(CCNC(=O)CSc2nn(-c3ccccc3)c(=S)s2)cc1OC`, the “hERG current change (%, negative = inhibition) at 1uM” value is -3.26%.
`Cc1cc(=O)n2[nH]c(COc3ccccc3)nc2n1`: the “hERG current change (%, negative = inhibition) at 1uM” value is 0.74%.
`COc1ccc(CNC(=O)CSc2nnnn2-c2ccc(O)cc2)cc1`: the “hERG current change (%, negative = inhibition) at 1uM” value was 8.82%.
With `COc1cc(OC)c(C2C(C#N)=C(N)Oc3cc(C)n(CCCN4CCOCC4)c(=O)c32)cc1OC` (centres unmarked), the “hERG current change (%, negative = inhibition) at 1uM” value was determined as 1.24%.
Consider `COc1ccc(Cn2c(-c3ccc(OC)cc3)nc3c(c(=O)c4ccccc4n3C)c2=O)cc1`, for which the “hERG current change (%, negative = inhibition) at 1uM” value worked out at 1.62%.
With `CC[N+](C)(C)CCN(Cc1ccc(Cl)cc1)c1ccccn1.[Br-]`, the “hERG current change (%, negative = inhibition) at 1uM” value is on record as -33.2%.
For `CC1=N/C(=C\c2ccccc2Cl)C(=O)O1`, the “hERG current change (%, negative = inhibition) at 1uM” value amounted to 13%.
Take `Cc1cc(O)c(C(C)C)cc1NC(=O)c1ccc(Cl)cc1`: the “hERG current change (%, negative = inhibition) at 1uM” value is on record as 7.65%.
The result for `CCCOC(=O)C1[C@H]2C(=O)N(CC3CCCO3)C[C@]23C=C[C@H]1O3` (some centres unmarked) reads 7.11%; that for `O=C(NCc1nc2ccccc2[nH]1)C1=C[C@@H](c2ccc(Br)cc2)C[C@@H](OCCCCO)O1`, -39.1%; that for `COc1cc2c(cc1O)[C@@H]1Cc3cc(O)c(OC)cc3[C@H](C2)N1C`, 17%.
The result for `CCOC(=O)C(=Cc1c[nH]c2ccc(S(=O)(=O)N(C)C)cc12)C(=O)OCC` reads -1.19%; that for `CS(=O)(=O)Nc1nnc(C2CCCC2)s1`, 18.5%; that for `CC1Cc2nc(SCC(N)=O)n(Cc3ccccc3)c(=O)c2S1` (centres unmarked), 9.58%.
In the case of `COc1ccc(C2C(C(=O)c3ccccc3)=C(C)Nc3nc4ccccc4n32)cc1OC` (centres unmarked), the “hERG current change (%, negative = inhibition) at 1uM” value is reported as -0.0681%.
In the case of `NC(=O)NC(Cc1ccccc1)C(=O)NCCCSc1ccccc1` (centres unmarked), the “hERG current change (%, negative = inhibition) at 1uM” value is 10.9%.
For the compound `COc1cccc(Oc2nc(-c3ccccc3O)nc3ccccc23)c1`, the “hERG current change (%, negative = inhibition) at 1uM” value is 13%.
The result for `CCOC(=O)/C(C#N)=C\C=C1C=CN(C)C=C1` reads 1.78%.
For the compound `Cc1cccc(OC(C)C(=O)Nc2cc(Cl)ccc2-n2cncn2)c1` (centres unmarked), the “hERG current change (%, negative = inhibition) at 1uM” value is 3.58%.
With `Cn1cc(S(=O)(=O)N2CCN(c3cccc(Cl)c3)CC2)c(=O)n(C)c1=O`, the “hERG current change (%, negative = inhibition) at 1uM” value is on record as 8.48%.
On to `Cc1cc(=O)[nH]c(N/N=C/c2ccccc2Cl)n1`, for which the “hERG current change (%, negative = inhibition) at 1uM” value is on record as 13.3%.
Turning to `CN(CC(=O)NCc1ccco1)S(=O)(=O)c1cccc2cccnc12`, the “hERG current change (%, negative = inhibition) at 1uM” value stood at 4.06%.
For the compound `CNC(=O)/C(=C\c1ccc([N+](=O)[O-])cc1)NC(C)=O`, the “hERG current change (%, negative = inhibition) at 1uM” value is given as -2.59%.
Regarding `O=[N+]([O-])c1ccc(S(=O)(=O)NCC(c2cccnc2)N2CCc3ccccc3C2)cc1` (centres unmarked), the “hERG current change (%, negative = inhibition) at 1uM” value is given as 2.73%.
For `Brc1ccc(-c2ccc(C3Nc4cccc5cccc(c45)N3)o2)cc1`, the “hERG current change (%, negative = inhibition) at 1uM” value is 10.4%.
Turning to `COc1ccc(CN(C(=O)Cc2c[nH]c3ccccc23)C(C(=O)NC2CCCCC2)c2ccc(C)o2)cc1` (centres unmarked), the “hERG current change (%, negative = inhibition) at 1uM” value is reported as 9.45%.
In the case of `CCC(=O)N/N=C(\C)CC(=O)Nc1cccc([N+](=O)[O-])c1`, the “hERG current change (%, negative = inhibition) at 1uM” value was determined as 7.54%.
On to `Cc1ccc(/C=C2/SC(=Nc3ccc(F)cc3)NC2=O)s1`, for which the “hERG current change (%, negative = inhibition) at 1uM” value is 13%.
`C=CCn1c(-c2cccnc2Cl)nc2ccccc21`: the “hERG current change (%, negative = inhibition) at 1uM” value is 9.46%.
Under `Cc1c(NC(=O)CN2C(=O)NC(C)(c3ccc(OC(F)F)cc3)C2=O)c(=O)n(-c2ccccc2)n1C` (centres unmarked) stands 15.3%; under `COc1ccc(C(=O)Nc2ccc(C(=O)Nc3nccs3)cc2)cc1[N+](=O)[O-]`, 12.2%; under `Cl.O=C(Nc1ncccc1Cl)C1COc2ccccc2O1` (centres unmarked), 6.08%.
Take `COc1ccc(OC)c(NC(=S)N2CCC(C(O)(c3ccccc3)c3ccccc3)CC2)c1`: the “hERG current change (%, negative = inhibition) at 1uM” value was -0.0702%.
For the compound `CC(NC(=O)C1CCCC1)c1ccc2c(c1)OCCO2` (centres unmarked), the “hERG current change (%, negative = inhibition) at 1uM” value came to 5.68%.
`O=C(Nc1cc(S(=O)(=O)Nc2ccc(Cl)cc2)ccc1N1CCCCC1)c1ccc(F)cc1`: the “hERG current change (%, negative = inhibition) at 1uM” value is reported as 11.1%.
Take `Cc1cccc(OCCn2cccc2/C=C2/C(=O)NC(=O)N(Cc3ccco3)C2=O)c1`: the “hERG current change (%, negative = inhibition) at 1uM” value amounted to 8.15%.
`Clc1ccccc1CSc1nncn1NC/C=C/c1ccccc1`: the “hERG current change (%, negative = inhibition) at 1uM” value turned out to be 6.23%.
`CC1=CC(=O)C=CC1(C)C(Cl)(Cl)Cl` (centres unmarked): the “hERG current change (%, negative = inhibition) at 1uM” value was -0.359%.
The result for `C=CCn1c(CNC(=O)c2cccs2)nnc1SCC(=O)Nc1ccc(C(=O)O)cc1` reads 7.4%; that for `CCC(=O)Nc1nc2ccc([N+](=O)[O-])cc2s1`, -0.0748%.
Regarding `CCOC(=O)c1c(NC(=O)CSc2c[nH]c3ccccc23)sc2c1CCC2`, the “hERG current change (%, negative = inhibition) at 1uM” value was determined as 12.5%.
`Cc1cc(C)c(S(=O)(=O)N2CCOC2CNC(=O)C(=O)NCc2ccncc2)c(C)c1` (centres unmarked): the “hERG current change (%, negative = inhibition) at 1uM” value is 17.6%.
`CCC1C(=NO)C(CC)C(c2ccccc2)NC1c1ccccc1` (centres unmarked): the “hERG current change (%, negative = inhibition) at 1uM” value worked out at 10.6%.
Under `CCOC(=O)CNC(=O)CNC(=O)Cn1ccc2ccccc2c1=O` stands 12.4%; under `COc1cc(/C=N/Nc2nc(N3CCCCC3)nc(N3CCCCC3)n2)ccc1OC(=O)c1ccco1`, 11.4%.
Consider `Cc1ccc(CCCOC(=O)C[N+]2(C)CCOCC2)cc1.[I-]`, for which the “hERG current change (%, negative = inhibition) at 1uM” value is on record as 5.43%.
For `COc1ccc(CN=Nc2cc(C)nc(NS(=O)(=O)c3ccccc3Cl)n2)cc1`, the “hERG current change (%, negative = inhibition) at 1uM” value was 4.13%.
Turning to `CCC(C)Nc1nc(N)c([N+](=O)[O-])c(NCCO)n1` (centres unmarked), the “hERG current change (%, negative = inhibition) at 1uM” value is listed as 12.1%.
Regarding `CCOC(=O)N1CCC(NC(=O)CS(=O)Cc2nc(-c3ccc(C)cc3)oc2C)CC1` (centres unmarked), the “hERG current change (%, negative = inhibition) at 1uM” value is 11.3%.
Under `CC(c1nccs1)N(C)C(=O)CCc1nnc(CCc2ccccc2)o1` (centres unmarked) stands 8.91%.
The result for `O=C(Cc1c(F)cccc1Cl)NC1CCN(Cc2ccccc2)CC1` reads 13.7%; that for `Cc1ccc(-c2nnc(SCC(=O)NC3CC3)o2)cc1`, 0.3%.
The result for `CCCCCOc1ccc(NC2=CC(=O)CCC2)cc1` reads 5.15%; that for `Cc1cc(NS(=O)(=O)c2ccc(NC(=O)CCCOc3ccccc3C)cc2)nc(C)n1`, 9.32%; that for `CCN(CC)C(=N)/C(C#N)=N/Nc1ccccc1`, 5.34%.
For `CC(OC(=O)CCc1ccccc1)C(=O)Nc1ncc(Cl)cc1Cl` (centres unmarked), the “hERG current change (%, negative = inhibition) at 1uM” value amounted to 0.875%.
Under `O=C(NCCN1CCOCC1)NC1(C(F)(F)F)Oc2ccccc2O1` stands 6.95%.
Consider `Cc1cccc(NC(=O)Nc2nnc(N3CCCCC3C)s2)c1C` (centres unmarked), for which the “hERG current change (%, negative = inhibition) at 1uM” value is 14.2%.
Take `CCOC(=O)C1(Cc2ccc(Cl)cc2)CCN(Cc2cn(CC)nc2C)CC1`: the “hERG current change (%, negative = inhibition) at 1uM” value is on record as -28.5%.
Under `CCS(=O)(=O)c1nc2ccccc2n1Cc1ccccc1Cl` stands 3.41%.
The result for `CC1(O)C(=O)C=C2C=C(c3ccc(C#N)cc3)OC=C2C1=O` (centres unmarked) reads 16%; that for `COc1ccc(-c2cn3c(C)c(C(=O)Nc4cccc(C)n4)sc3n2)cc1`, 4.49%.
In the case of `CCOC(=O)C1CCN(S(=O)(=O)c2ccc(C)cc2)CC1`, the “hERG current change (%, negative = inhibition) at 1uM” value was 21.9%.
Regarding `NC(N)=NS(=O)(=O)c1ccc(N)cc1`, the “hERG current change (%, negative = inhibition) at 1uM” value worked out at 5.49%.
Take `COc1ccc(-c2cc(C(F)(F)F)n3nc(C(=O)N4CCCC4)cc3n2)cc1`: the “hERG current change (%, negative = inhibition) at 1uM” value was -2.76%.
In the case of `COC(=O)C1=C(C)OC(N)=C(C#N)C1c1cc2cc(C)ccc2nc1Cl` (centres unmarked), the “hERG current change (%, negative = inhibition) at 1uM” value came to 24.5%.
With `Cc1nc(/C(N)=N/OC(=O)c2cccc(Cl)c2)c(C(F)(F)F)o1`, the “hERG current change (%, negative = inhibition) at 1uM” value worked out at 18%.
Consider `Cc1cc(C)c(C(=O)CSc2nc3ccccc3c(=O)[nH]2)cc1C`, for which the “hERG current change (%, negative = inhibition) at 1uM” value was determined as 18.1%.
`O=C(CCCc1ccccc1)NCCc1ccccc1`: the “hERG current change (%, negative = inhibition) at 1uM” value turned out to be 11.5%.
Take `CN(CC(=O)Nc1cccc(F)c1)C(=O)c1ccccc1Sc1ccccc1C#N`: the “hERG current change (%, negative = inhibition) at 1uM” value was -8.06%.
Turning to `CN(CCC#N)C(=O)COC(=O)c1ccc2c(=O)n3c(nc2c1)CCC3`, the “hERG current change (%, negative = inhibition) at 1uM” value worked out at 18%.
For `Cc1ccc(-n2cc(CN3CCC(CO)(Cc4cccc(C(F)(F)F)c4)CC3)cn2)cc1`, the “hERG current change (%, negative = inhibition) at 1uM” value was -64.3%.
As for `Cc1c(C(=O)OCc2nc3ccsc3c(=O)[nH]2)oc2ccccc12`, the “hERG current change (%, negative = inhibition) at 1uM” value is on record as 0.971%.
For the compound `COc1ccc(CCNc2cc(C)nc(N)n2)cc1OC`, the “hERG current change (%, negative = inhibition) at 1uM” value was 9.65%.
The result for `O=C(NC1CCCCC1)C(c1ccco1)N(C(=O)c1csnn1)C1CCCC1` (centres unmarked) reads -2.7%.
In the case of `CCS(=O)(=O)c1nc(S(=O)(=O)c2ccc(Cl)cc2)c(NCc2ccccn2)s1`, the “hERG current change (%, negative = inhibition) at 1uM” value worked out at 8.22%.
Under `C/C=C/C(=O)N1CC2(CC(c3cccc(NC(=O)COc4ccc(Cl)cc4)c3)=NO2)C[C@@H]1C(N)=O` (some centres unmarked) stands -0.935%.
Under `CCOC(=O)c1[nH]c(C(=O)O)c(CCC(=O)OC)c1C` stands 14.4%.
The result for `O=C(COC(=O)CCc1c[nH]c2ccccc12)Nc1cc([N+](=O)[O-])ccc1Cl` reads 2.98%; that for `CCC/C(=N\NC(=O)c1ccc(OC)c(OC)c1)c1ccccc1`, 6.46%.
For `CN(C)S(=O)(=O)c1ccc(Cl)c(C(=O)NCC2CCCCC2)c1`, the “hERG current change (%, negative = inhibition) at 1uM” value is 11.3%.
On to `C#CCOCCOCCOCCNc1nc(N2CCN(C(=O)[C@H](CCCCN)n3cc([C@@H](N)CO)nn3)CC2)nc(N2CCN(C(=O)[C@H](Cc3cc4ccccc4[nH]3)n3cc([C@@H](N)Cc4ccc(O)cc4)nn3)CC2)n1.Cl`, for which the “hERG current change (%, negative = inhibition) at 1uM” value is recorded as -2.32%.
Take `CC1(C)OCC(COC(=O)Nc2cccnc2)([N+](=O)[O-])CO1`: the “hERG current change (%, negative = inhibition) at 1uM” value is 5.6%.
Consider `CCN(CC)CCNC(=O)CCc1nnc2ccc(N3CCC(C)CC3)nn12`, for which the “hERG current change (%, negative = inhibition) at 1uM” value was 16.3%.
